# According to patent US20100204155A1, “USE OF THE PEPTIDE SFLLR-OH AND MURAMYL DIPEPTIDE AS THERAPEUTIC AGENTS” (priority 2007, published 2010):
# Where no end group is shown, it is not given here.
# Tested on: RAW 264.7 (Mouse leukaemic monocyte macrophage cell line) cells
# Test: Phagocytosis assay (Fluorescein-labeled Escherichia coli, flow cytometry)
# Details: 10 micrograms per ml; RAW 264.7 cells; combination peptide 1:peptide 2 1.10 mole:0.90 mole
row,Substance,increase on the phagocytic activity of murine macrophages
1,Ac-muramyl-Ala-D-Glu-NH2 [Peptide 2],40.9%
2,Ser-Phe-Leu-Leu-Arg-OH (SFLLR-OH) [Peptide 1],42.9%
